Assays:
[1] = biological target: T1, PTK7 on cancer cell lines (Homo sapiens, UniProt Q13308); experiment: Flow cytometry binding of hu23 and hu24 to cultured cancer cell lines (Example 4); conditions: 10 μg/ml Ab
T1 construct: cancer cell lines with endogenous expression of PTK7; endogenous in cells; host or cells: cultured cancer cell lines (e.g. H661, H446, U2OS, H520, H1048, OE19, OE21, H1975, EKVX)
T1 sequence (Q13308 31-1070): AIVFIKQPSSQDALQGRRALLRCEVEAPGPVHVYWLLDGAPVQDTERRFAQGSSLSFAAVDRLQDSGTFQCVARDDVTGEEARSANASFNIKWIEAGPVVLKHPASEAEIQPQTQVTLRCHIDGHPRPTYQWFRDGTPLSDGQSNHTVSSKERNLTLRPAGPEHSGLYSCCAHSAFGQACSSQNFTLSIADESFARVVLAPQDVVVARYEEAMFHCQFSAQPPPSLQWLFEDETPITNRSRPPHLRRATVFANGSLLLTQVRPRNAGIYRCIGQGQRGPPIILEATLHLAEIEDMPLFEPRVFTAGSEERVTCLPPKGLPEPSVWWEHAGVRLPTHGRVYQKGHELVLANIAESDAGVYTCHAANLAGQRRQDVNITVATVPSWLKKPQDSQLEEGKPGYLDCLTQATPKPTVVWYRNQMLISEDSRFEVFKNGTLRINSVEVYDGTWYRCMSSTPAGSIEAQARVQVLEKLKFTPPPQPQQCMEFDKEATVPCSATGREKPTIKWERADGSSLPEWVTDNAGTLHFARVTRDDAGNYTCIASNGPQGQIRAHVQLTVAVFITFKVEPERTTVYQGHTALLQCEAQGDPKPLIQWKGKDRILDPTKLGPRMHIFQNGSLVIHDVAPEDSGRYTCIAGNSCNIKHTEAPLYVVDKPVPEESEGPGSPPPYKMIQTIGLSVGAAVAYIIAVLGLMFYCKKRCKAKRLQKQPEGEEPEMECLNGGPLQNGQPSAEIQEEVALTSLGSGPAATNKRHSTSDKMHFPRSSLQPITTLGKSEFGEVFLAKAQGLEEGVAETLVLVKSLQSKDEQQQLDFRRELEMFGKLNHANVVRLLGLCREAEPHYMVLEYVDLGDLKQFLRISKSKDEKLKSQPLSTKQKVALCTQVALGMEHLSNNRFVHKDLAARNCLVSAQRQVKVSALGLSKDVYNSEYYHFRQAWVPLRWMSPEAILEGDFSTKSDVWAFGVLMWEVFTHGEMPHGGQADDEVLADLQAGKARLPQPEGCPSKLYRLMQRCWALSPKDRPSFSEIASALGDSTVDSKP
Procedure: Adherent cells were dissociated using TrypLE Express (GIBCO), neutralized with cell culture media and counted. Cells were plated into a U-bottom 96-well plate with 5×10^5 cells/100 μL media/well. The plate was centrifuged at 300×g, for 5 minutes at 4° C. to pellet cells and the supernatant was discarded. […] The plate was centrifuged and the cell pellets were washed in 200 μL ice-cold 3% BSA in PBS. Each cell pellet was resuspended in 100 μL of R-phycoerythrin (PE)-conjugated goat anti-human IgG Fc fragment that had been diluted 1:50 in 3% BSA in PBS, and the plate was incubated on ice for 30 minutes. The plate was centrifuged and the cell pellets were washed in 200 μL of 3% BSA in PBS at 4° C. Each pellet was resuspended in 100 μL 3% BSA in PBS and transferred to a 5 mL polycarbonate tube containing 250 μL 3% BSA in PBS. The samples were analyzed by flow cytometry using 5 μL 7-Amino-Actinomycin D (7-AAD) staining solution per sample as a viability stain. Non-viable cells were excluded from the analysis.

[2] = format: in vivo, mouse; conditions: BR13 PDX and BR22 PDX; three time points following the third administration; data not shown
Description: For efficacy studies, tumors were harvested from passaging studies and cells were dissociated into single cell suspension. Preparations were counted for live cells using Trypan blue exclusion and 10,000 to 50,000 cells were inoculated per mouse in Matrigel. […] Tumor growth was initially followed by palpability with measurements beginning once tumor volumes reached about 30 mm^3. Studies were randomized based on tumor size once a cohort of tumor-bearing mice reached 140 mm^3 to 180 mm^3. Animals were dosed by intraperitoneal injection twice a week for two weeks (q4dx4). Study groups were followed until individual mice or entire group tumor measurements reached 1200 mm^3 when sacrifice was indicated in accordance with IACUC protocol. For selected dosing studies, pharmacokinetic submandibular bleeds were performed at 2 hours, 36 hours and 72 hours. A volume of 10 μL of blood was immediately pipetted into 90 μL of HBS-P (GE Healthcare). Samples were stored at −80° C. prior to analysis. […]
To confirm exposure of hu24-vc0101 ADC in the efficacy studies, plasma concentrations of ADC and total antibody were determined for two PDX models, BR13 PDX and BR22 PDX. Samples were collected at three time points following the third administration of ADC and concentrations were measured by Ligand Binding Assay (LBA) (data not shown).

B1: hu24 (antibody)
heavy: QVQLVQSGPEVKKPGASVKVSCKASGYTFTDYAVHWVRQAPGKRLEWIGVISTYNDYTYNNQDFKGRVTMTRDTSASTAYMELSRLRSEDTAVYYCARGNSYFYALDYWGQGTSVTVSS[letters of human IgG1 constant region omitted]
light: EIVLTQSPATLSLSPGERATLSCRASESVDSYGKSFMHWYQQKPGQAPRLLIYRASNLESGIPARFSGSGSGTDFTLTISSLEPEDFAVYYCQQSNEDPWTFGGGTKLEIKRTVAAPSVFIFPPSDEQLKSGTASVVCLLNNFYPREAKVQWKVDNALQSGNSQESVTEQDSKDSTYSLSSTLTLSKADYEKHKVYACEVTHQGLSSPVTKSFNRGEC
- Mean Fluorescent Intensity ([1]; ASPC1, Pancreatic): 4.5
- Mean Fluorescent Intensity ([1]; BT-549, Breast (BR)): 114
- Mean Fluorescent Intensity ([1]; BxPC3, Pancreatic): 207
- Mean Fluorescent Intensity ([1]; DMS79, Lung (SCLC)): 682
- Mean Fluorescent Intensity ([1]; DMS114, Lung (SCLC)): 793
- Mean Fluorescent Intensity ([1]; DU4475, Breast (BR)): 697
- Mean Fluorescent Intensity ([1]; EKVX, Lung (NSCLC)): 3.8
- Mean Fluorescent Intensity ([1]; H69, Lung (SCLC)): 404
- Mean Fluorescent Intensity ([1]; H358, Lung (NSCLC)): 474
- Mean Fluorescent Intensity ([1]; H446, Lung (SCLC)): 937
- Mean Fluorescent Intensity ([1]; H520, Lung (NSCLC)): 1384
- Mean Fluorescent Intensity ([1]; H522, Lung (NSCLC)): 672
- Mean Fluorescent Intensity ([1]; H526, Lung (NSCLC)): 438
- Mean Fluorescent Intensity ([1]; H596, Lung (NSCLC)): 355
- Mean Fluorescent Intensity ([1]; H661, Lung (NSCLC)): 376
- Mean Fluorescent Intensity ([1]; H1048, Lung (SCLC)): 955
- Mean Fluorescent Intensity ([1]; H1299, Lung (NSCLC)): 70.9
- Mean Fluorescent Intensity ([1]; H1975, Lung (NSCLC)): 444
- Mean Fluorescent Intensity ([1]; H2110, Lung (NSCLC)): 171
- Mean Fluorescent Intensity ([1]; HCC38, Breast (BR)): 227
- Mean Fluorescent Intensity ([1]; HCC70, Breast (BR)): 474
- Mean Fluorescent Intensity ([1]; HCC827, Lung (NSCLC)): 251
- Mean Fluorescent Intensity ([1]; HCC1806, Breast (BR)): 77.5
- Mean Fluorescent Intensity ([1]; HCC1937, Breast (BR)): 370
- Mean Fluorescent Intensity ([1]; HCT116, Colon): 629
- Mean Fluorescent Intensity ([1]; HEL92.1, Erythroleukemia (AML)): 23
- Mean Fluorescent Intensity ([1]; HEL, Erythroleukemia (AML)): 46
- Mean Fluorescent Intensity ([1]; HL60, Promyelocytic leukemia (AML)): 12.7
- Mean Fluorescent Intensity ([1]; HL60 MX2, Promyelocytic leukemia (AML)): 25.7
- Mean Fluorescent Intensity ([1]; Hs578T, Breast (BR)): 124
- Mean Fluorescent Intensity ([1]; Hs700T, Pancreatic): 241
- Mean Fluorescent Intensity ([1]; K562, Chronic Myelogenous leukemia (CML)): 56.1
- Mean Fluorescent Intensity ([1]; KG1, Erythroleukemia (AML)): 159
- Mean Fluorescent Intensity ([1]; Kasumi-1, Erythroleukemia (AML)): 68.2
- Mean Fluorescent Intensity ([1]; MDAMB361-DYT2, Breast (BR)): 295
- Mean Fluorescent Intensity ([1]; MDAMB436, Breast (BR)): 189
- Mean Fluorescent Intensity ([1]; MDAMB468, Breast (BR)): 364
- Mean Fluorescent Intensity ([1]; MV411, Monocytic leukemia): 10.1
- Mean Fluorescent Intensity ([1]; MiaPaca, Pancreatic): 611
- Mean Fluorescent Intensity ([1]; NB4, Promyelocytic leukemia (AML)): 19.5
- Mean Fluorescent Intensity ([1]; RL, Non-Hodgkin's lymphoma (NHL)): 44.2
- Mean Fluorescent Intensity ([1]; RPMI8226, Multiple myeloma): 17.8
- Mean Fluorescent Intensity ([1]; Raji, Non-Hodgkin's lymphoma (NHL)): 36.3
- Mean Fluorescent Intensity ([1]; SKBR3, Breast (BR)): 39.7
- Mean Fluorescent Intensity ([1]; TF1, Erythroleukemia (AML)): 135
- Mean Fluorescent Intensity ([1]; TF1a, Erythroleukemia (AML)): 208
- Mean Fluorescent Intensity ([1]; THP-1, Monocytic leukemia): 4.0
- Mean Fluorescent Intensity ([1]; U937, Monocytic leukemia): 5.8

B2: hu24-vc0101: hu24 conjugated through cysteines to vc0101 linker-payload; average DAR approximately 4 (conjugate)
heavy: QVQLVQSGPEVKKPGASVKVSCKASGYTFTDYAVHWVRQAPGKRLEWIGVISTYNDYTYNNQDFKGRVTMTRDTSASTAYMELSRLRSEDTAVYYCARGNSYFYALDYWGQGTSVTVSS[letters of human IgG1 constant region omitted]
light: EIVLTQSPATLSLSPGERATLSCRASESVDSYGKSFMHWYQQKPGQAPRLLIYRASNLESGIPARFSGSGSGTDFTLTISSLEPEDFAVYYCQQSNEDPWTFGGGTKLEIKRTVAAPSVFIFPPSDEQLKSGTASVVCLLNNFYPREAKVQWKVDNALQSGNSQESVTEQDSKDSTYSLSSTLTLSKADYEKHKVYACEVTHQGLSSPVTKSFNRGEC
- plasma exposure of ADC and total antibody [2]: drug exposures were comparable in these tumor models

Reference: patent US9777070B2, “Anti-PTK7 antibody-drug conjugates” (Pfizer Inc., priority 2014, dated 2017)
